About 12,000 (3.5%) of roughly 340,000 compounds were called active. This list was built around the results that the source calls inconclusive (neither active nor inactive); the mix of calls is not that of the screen. Calls come from the whole dose curve; as a rule, active = well fitted inhibition curve with a large enough effect; inconclusive = small, poorly fitted or top-dose-only effect, or another doubt; inactive = no such curve, though single readings can be large or run the other way. Potencies of inconclusive entries are left out as doubtful fits.
experiment: qHTS Assay for Inhibitors of Hepatitis C Virus (HCV); conditions: Huh7.5.1 HCVcc-Cre (HCVcc is cell-culture hepatitis C virus) infection, luciferase reporter, 44 h; activity change, negative = inhibition: at 41.8 µM (top of the series) unless noted
Procedure, shortened: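 Infectious HCVcc-Cre (~0.5 moi) was added to cells just after compound, with cells seeded 4 h earlier at 1,000 per well. Luciferase activity after 44 h culture reported infection; substrate was incubated 15 min at room temperature before reading.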
% is set by controls: 0 for no effect and ±100 for the full control effect; potency is the fitted concentration of half-maximal effect; tags give direction and shape of the fitted curve.

| Structure (SMILES) | Potency | activity change, negative = inhibition |
| --- | --- | --- |
| Cc1ccc(C(=O)Nc2ccc(S(=O)(=O)N3CCOCC3)cc2)cc1C | inconclusive [inhibitor, single point] | – |
| CCOc1ccccc1/C=N/NC(=O)c1nnn(-c2nonc2N)c1CN1CCCCCC1 | – | inactive: 3.54% |
| O=C(Nc1ccc(F)c(F)c1)c1ccc2c(c1)OCO2 | – | inactive: -12.6% |
| CCOc1ccc(NS(=O)(=O)c2ccc(NC(=S)NC(C)=O)cc2)cc1 | inconclusive [inhibitor, single point] | – |
| Cc1ccc(OCCn2c(Br)nc3c2c(=O)n(C)c(=O)n3C)cc1 | active: 8.91 µM | – |
| CC(C)n1cnc2cc(NCc3ccccc3O)ccc21 | – | inactive: 7.08% |
| N#Cc1c(SCc2cccc(Cl)c2)sc(C(=O)c2ccccc2)c1N | inconclusive [inhibitor, single point] | – |
| CC(C)[C@H](NS(=O)(=O)c1ccccc1)C(=O)OCC(=O)N1N=C(c2ccc(Cl)cc2)CC1c1ccco1 (stereo partly drawn) | inconclusive [inhibitor, partial curve] | – |
| Cn1ccnc1SCC(=O)n1c2c(c3ccccc31)CCCC2 | – | inactive: 12.7% |
| CCOc1ccc2c(c1)-c1c(ssc1=S)C(C)(C)N2C(=O)CSC1=NCCS1 | inconclusive [inhibitor, single point] | – |
| COc1ccccc1CN(C)CC(=O)Nc1cccc(S(=O)(=O)N2CCCC2)c1 | inconclusive [inhibitor, single point] | – |
| CCN(CC)c1nc(Nc2ccc([N+](=O)[O-])cc2)nc(N(CC)CC)n1 | active: 11.2 µM | – |
| Cc1cc(C)nc(SCc2ccc(C(=O)N/N=C3\CCCC(=O)C3)cc2)n1 | inconclusive [inhibitor, single point] | – |
| C=CCN1C(=O)N/C(=C/c2ccc(N3CCOCC3)o2)C1=O | – | inactive: -0.794% [at 0.335 µM] |
| COCCN(CCOC)C(=O)c1cc2c(=O)n3ccccc3nc2s1 | inconclusive [inhibitor, single point] | – |
| Cc1cc(C(=O)CSc2nc(N)cc(=O)[nH]2)c(C)n1CCc1ccc(Cl)cc1 | active: 11.2 µM | – |
| Cc1cc2c3c(c1)C1(C(=O)N3C(C)(C)CC2C)C(C#N)=C(N)Oc2cc(O)ccc21 (stereo not drawn) | inconclusive [inhibitor, partial curve] | – |
| CC1CCCC(NC(=O)C2CCCN2S(=O)(=O)c2cccc3nsnc23)C1C (stereo not drawn) | inconclusive [inhibitor, partial curve] | – |
| O=C(CSc1nc2ccccc2c(=O)n1-c1ccccc1)N/N=C/C=C/c1ccccc1[N+](=O)[O-] | inconclusive [inhibitor, single point] | – |
| COc1ccc(OC)c(C(=O)CSc2nnc(Cc3cccs3)n2CCc2ccccc2)c1 | inconclusive [inhibitor, full curve] | – |
| Cc1ccc(-c2nn(-c3ccccc3)cc2C(=O)Nc2ccc(C)c(S(=O)(=O)N3CCOCC3)c2)cc1 | – | inactive: -21.2% |
| CCOc1ccc(CCN2C(=S)N([C@@H](Cc3ccc(O)cc3)CN3CCCC3CN3C(=S)NC[C@@H]3Cc3ccc(O)cc3)C[C@@H]2CC(C)C)cc1 (stereo partly drawn) | active: 4.47 µM | – |

| Structure (SMILES) | Potency | activity change, negative = inhibition |
| --- | --- | --- |
| O=C1NC(=O)N(Cc2ccccc2)C(=O)/C1=C/C=C/c1ccco1 | inconclusive [inhibitor, single point] | – |
| CCOC(=O)c1ccc2c(c1)n(CCCS(=O)(=O)[O-])c(/C=C/c1ccc(Cl)cc1)[n+]2CC | inconclusive [inhibitor, single point] | – |
| CCN(CC)CCN1C(=O)/C(=C\c2ccc(Cl)c([N+](=O)[O-])c2)SC1=Nc1ccc(OC)cc1 | inconclusive [inhibitor, single point] | – |
| O=C(c1cc(Br)c(Br)s1)N1CCN(C/C=C/c2ccccc2)CC1 | inconclusive [inhibitor, single point] | – |
| CCn1c(=O)oc2cc(NC(=O)CCl)ccc21 | inconclusive [inhibitor, single point] | – |
| COc1ccc(CCNC(=O)CSc2nc3[nH]ncc3c(=O)n2-c2ccccc2Br)cc1OC | inconclusive [inhibitor, single point] | – |
| CCOC(=O)c1c(C)n(C)c2ccc(OC)c(NC(=O)CCN3CCC(Cc4ccccc4)CC3)c12 | inconclusive [inhibitor, partial curve] | – |
| CCOc1ccc(OCC)c(NC(=O)CN2CCN(c3cccc(C)c3)C(C)C2)c1 (stereo not drawn) | active: 8.91 µM | – |
| c1ccc(-c2nc3c([nH]2)CCc2nonc2-3)cc1 | – | inactive: 5.16% |
| O=c1[nH]c(SCCOc2ccccc2)nc2ccccc12 | inconclusive [inhibitor, partial curve] | – |
| CCOC(=O)c1ccc(Nc2cc(C)nc(C)c2C(=O)OCC)cc1 | – | inactive: -22.3% |
| O=C(CSc1n[nH]c(=O)n1C1CC1)Nc1cc(Cl)ccc1Oc1ccccc1 | inconclusive [inhibitor, single point] | – |
| Cc1ccc(-c2n[nH]c(=S)c3ccccc23)cc1S(=O)(=O)NCC1CCCO1 (stereo not drawn) | inconclusive [inhibitor, single point] | – |
| Cc1nc(C)c(-c2csc(Nc3ccc(F)cc3)n2)s1 | active: 4.47 µM | – |
| COc1ccc(S(=O)(=O)N2CCC(Cc3ccccc3)CC2)cc1NC(C)=O | inconclusive [inhibitor, single point] | – |
| O=[N+]([O-])c1ccc(-c2nc(-c3ccncc3)no2)cc1 | – | inactive: 6.5% |
| CCN(C[C@H]1N[C@@](Cc2ccccc2)(C(=O)OC)[C@H]2C(=O)N(C)C(=O)[C@@H]12)C(=O)Nc1ccc(C)cc1 | inconclusive [inhibitor, single point] | – |
| CCNc1nc(NC(C)CC)nc(ON=C(C)C)n1 (stereo not drawn) | – | inactive: 0.153% |
| O=C(CSc1nc(-c2ccco2)cc(C(F)(F)F)n1)N1CCc2ccccc2C1 | active: 11.2 µM | – |
| Cc1ccc(C(=O)Nc2ccc(Nc3ccccc3)cc2)cc1C | inconclusive [inhibitor, partial curve] | – |
| O=C(NCCc1cccnc1)C1CCC(=O)N(Cc2ccc(Cl)cc2)C1 (stereo not drawn) | – | inactive: 11.1% |

From PubChem BioAssay AID651820 (National Center for Advancing Translational Sciences (NCATS), 2012)
